Molecules are shown by their SMILES. The whole screen tested about 48,000 compounds, of which about 1,200 (2.5%) were called active. Another 2% or so got no clear call; they are omitted.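 Rule for the calls: active = activation of at least 60% and not above a set upper limit (about 1 call in 100 departs from these limits); inconclusive = activation of 40% to 60%, or above that upper limit; inactive = activation under 40%.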 This is one part of the list.

In the assay the target is Probable G-protein coupled receptor 32 (Homo sapiens) (UniProt O75388). Kind of assay: qHTS for Agonists of Human Resolvin D1 Receptor DRV1. The note with it: CHO-K1 GPR32 beta-arrestin PathHunter luminescence, 90 min; at 76.9 µM; stronger effect = higher value; zero percent set by DMSO-only wells. The essentials: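 Using DMSO wells as EC0, agonist-induced signal was taken as chemiluminescence from beta-Gal reconstituted upon beta-arrestin recruitment to GPR32 in CHO-K1 cells after 90 min compound treatment.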
UniProt O75388, sequence (O75388 whole entry, looked up): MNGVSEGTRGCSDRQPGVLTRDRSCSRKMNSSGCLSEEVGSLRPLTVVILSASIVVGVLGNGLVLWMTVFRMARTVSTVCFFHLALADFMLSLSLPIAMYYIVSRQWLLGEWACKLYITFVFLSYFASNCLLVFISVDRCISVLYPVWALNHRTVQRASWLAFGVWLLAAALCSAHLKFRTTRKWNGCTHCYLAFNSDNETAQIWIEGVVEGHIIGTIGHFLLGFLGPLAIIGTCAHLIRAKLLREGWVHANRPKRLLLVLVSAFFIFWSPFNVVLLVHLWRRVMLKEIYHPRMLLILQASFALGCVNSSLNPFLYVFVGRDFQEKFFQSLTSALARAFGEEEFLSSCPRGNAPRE
Regarding `Cn1c(=O)c2cc(C(=O)NCCCN3CCN(c4ccc(F)cc4)CC3)sc2c2ccccc21`, the activation was inactive: 4.21%. For `Cc1ccc(-c2noc(-c3ccc(N4CCOCC4)c([N+](=O)[O-])c3)n2)cc1` the value was inactive: 4.72%; for `COc1ccc(NC(=O)CSc2nc3ccccc3nc2N2CCOCC2)c(OC)c1`, inactive: -31.2%.

Turning to `Cc1ccc(C(=O)c2oc3ccccc3c2NC(=O)COc2ccccc2C)cc1`, the activation is inactive: 15.6%. For `Cc1ccccc1CN1C(=O)c2ccccc2S(=O)c2ccc(C(=O)N3CCOCC3)cc21` (stereo not drawn) the value was inactive: -4.4%; for `O=[N+]([O-])c1cc(-c2nc(-c3ccccc3)no2)ccc1NCc1ccco1`, inactive: -3.34%.

Consider `COc1ccc(N2CC(C(=O)NCCS(=O)(=O)N3CCN(c4ccccc4)CC3)CC2=O)cc1` (stereo not drawn), for which the activation is inactive: -11.6%. As for `O=C(CCCN1CCN(c2ccccn2)CC1)c1ccc(F)cc1`, the activation was inactive: 10.9%.

On to `COc1ccc(S(=O)(=O)N2CCC(Oc3cccc(C(F)(F)F)c3)CC2)cc1OC`, for which the activation is inactive: -2.39%. In the case of `CC(C)OCCCNC(=O)c1cn(C)c2ccc(S(=O)(=O)N(C)C3CCCCC3)cc2c1=O`, the activation is inactive: 8.77%. The same measure for `CN(CC(=O)Nc1ccc(OC(F)(F)F)cc1)S(=O)(=O)c1ccc2c(c1)CCC(=O)N2`: inactive: 12.1%; for `Cc1c(C(=O)N2CCCC2)oc2c1-c1nn(CC(=O)NCc3ccc(OC(C)C)cc3)cc1CC2`: inactive: -5.83%.

With `CCc1cccc(NC(=O)c2cnc(N3CCOCC3)c3ccccc23)c1`, the activation is inactive: -13.8%. Regarding `Cc1ccc(-n2c(=O)c3c(C)c(C(=O)N(C)C)sc3n(CC(=O)N(C)c3ccccc3)c2=O)cc1C`, the activation is inactive: -8.54%.

`Cc1ccc(C)c(NC(=O)CSc2nc3nccnc3c(=O)n2CCc2c[nH]c3ccccc23)c1`: the activation was inactive: 0.242%.

As to `CCOC(=O)c1cc(-c2ccccc2)n(CCCC(=O)Nc2ccc(C)c(Cl)c2)c1C`, the activation is inactive: -22.9%.

Regarding `Cc1ccc2occ(-c3cc(-c4ccccc4)nc4c3COc3ccccc3-4)c(=O)c2c1`, the activation is inactive: 19.3%. As to `O=C(Nc1ccc(-c2nc3cc(Cl)ccc3o2)cc1)c1cc(Br)ccc1Cl`, the activation is inactive: -23.9%. The same measure for `CCc1cccc(C)c1NC(=O)CN1CCN(Cc2ccccc2Cl)S1(=O)=O`: inactive: -11.3%; for `CCc1ccc(NC(=O)Cn2c(=O)c3cccn3c3ccccc32)cc1`: inactive: -25.4%; for `COc1ccc(-c2csc3nc(-c4ccc(Cl)cc4)oc(=O)c23)cc1`: inactive: 12.1%. The same measure for `Cc1cccc(NC(=O)CCn2cnnn2)c1`: inactive: -4.65%; for `COc1cc(C(=O)NC2(C(F)(F)F)C(=O)NC(C)=C2C#N)cc(OC)c1OC` (stereo not drawn): inactive: -2.01%.

For `CCN(CC)S(=O)(=O)c1ccc2c(c1)N(CC(=O)N1CCN(c3cccc(C)c3)C(C)C1)C(=O)CO2` (stereo not drawn), the activation is inactive: -27%. For the compound `CCN(C(=O)CSc1nc2ccccc2c2nc(CCn3c(C)nc4ccccc43)nn12)c1cccc(C)c1`, the activation was inactive: -3.7%. Turning to `COc1cc(C(=O)Nc2ccc3nc4n(c(=O)c3c2)CCCCC4)cc(OC)c1OC`, the activation was inactive: 5.9%.

Regarding `Cc1ccc(Nc2c(-c3ccc(N4CCOCC4)cc3)nc3ccc(C)cn23)cc1`, the activation is inactive: -0.525%. For `CC(=O)c1ccc(N2CCN(C(=O)Nc3ccc(C)cc3)CC2)cc1` the value was inactive: 1.66%. As to `COc1ccc(NC(=O)CSc2nnc(N)s2)cc1`, the activation is inactive: 6.37%. The same measure for `Cn1c(=O)oc2cc(S(=O)(=O)NC(CC(=O)O)c3cccc(Br)c3)ccc21` (stereo not drawn): inactive: -4.92%.

On to `Cc1cc(NC(=O)Nc2ccc3c(ccn3C)c2)sn1`, for which the activation was inactive: 3.86%.

For the compound `Cc1cccc(CNC(=O)c2ccc3c(c2)N(C)CCS3)c1`, the activation was inactive: -18.8%. For `Cc1cc(C)c(NC(=O)CSc2nc3ccccc3c3nc(-c4ccccc4)nn23)c(C)c1` the value was inactive: -17.5%; for `CCc1ccc(C(c2ccccc2)c2c(C)[nH]c3ccccc23)s1` (stereo not drawn), inactive: 13%; for `CCOc1ccc(C2C(=O)N(C3CCCCC3)CC(=O)N2Cc2ccc(F)cc2)cc1OC` (stereo not drawn), inactive: -14.1%.

Turning to `COc1ccc(NC(=O)Cn2c(=O)n(CCCC(=O)NCc3ccccc3Cl)c(=O)c3ccccc32)c(OC)c1`, the activation is inactive: -4.27%.

For the compound `CC(C)(C)c1cc(C=O)cc(C(C)(C)C)c1O`, the activation is inactive: -7.02%.

For the compound `Cc1ccccc1CNC(=O)Cn1nc(C)c2nn(-c3ccc(Cl)cc3)c(C)c2c1=O`, the activation is inactive: -16.8%.

For `CCOC(=O)c1sc2ccccc2c1S(=O)(=O)Nc1cc(OC)ccc1OC`, the activation was inactive: -11.4%. The same measure for `COc1ccc(N2CCN(c3ncccc3-c3nc(-c4ccccc4C)no3)CC2)cc1`: inactive: -5.45%; for `Cc1ccc(C)c(N2CCN(S(=O)(=O)c3ccc4[nH]c5c(c4c3)CCCC5)CC2)c1`: inactive: 6%. For `COc1ccc(CNCc2c(C(=O)O)c(C)n(Cc3ccccc3C)c2C)cc1OC` the value was inactive: -5.37%; for `COc1ccc(CNS(=O)(=O)c2ccc(C(=O)N(C)C)s2)cc1`, inactive: -13%; for `N#Cc1nc(-c2ccc(COc3ccc(Cl)cc3)o2)oc1N1CCCCC1`, inactive: -7.47%. As to `CCOC(=O)c1scc(-c2ccccc2)c1S(=O)(=O)Nc1ccccc1OC`, the activation was inactive: -52.6%. The same measure for `COc1ccccc1N1CCN(c2nc3c(S(=O)(=O)c4ccccc4)nnn3c3ccc(Cl)cc23)CC1`: inactive: -5.09%; for `CCc1cccc(C)c1Nc1c(-c2ccc(F)cc2)nc2sccn12`: inactive: -10.1%; for `COc1ccc(Cn2c(SCc3ccc(C(=O)NC4CCCCC4)cc3)nc3ccncc32)cc1`: inactive: -1.28%. Turning to `O=C1c2[nH]nc(-c3ccccc3O)c2C(c2cccc(OCc3ccccc3)c2)N1CCCO` (stereo not drawn), the activation is inactive: 2.77%.

In the case of `Fc1ccc(N2CCN(Cc3nnc(-c4ccccc4Cl)o3)CC2)cc1`, the activation is inactive: -0.339%.

As for `CCOc1ccc(NC(=O)CSc2ncc(S(=O)(=O)c3ccc(F)c(C)c3)c(=O)[nH]2)cc1`, the activation is inactive: -6.1%. The same measure for `Cc1ccc2c(=O)c(C(=O)c3ccccc3)cn(CC(=O)NCc3ccccc3)c2n1`: inactive: 3.3%; for `Cc1ccc(CNc2nc(-c3ccco3)nn2C(=O)c2ccccc2[N+](=O)[O-])cc1`: inactive: -30.4%.

The record behind these values is PubChem BioAssay AID1346428 (National Center for Advancing Translational Sciences (NCATS), 2018).
